Source: PubChem BioAssay AID493208 (National Center for Advancing Translational Sciences (NCATS), 2011)
Among all 44,000 compounds or so, about 340 (0.77%) were called active. About 5% were inconclusive and are not listed. Calls follow the shape of the dose curve; as a rule, active = well fitted inhibition curve with a large enough effect; inconclusive = small, poorly fitted or top-dose-only effect; inactive = flat fitted curve, though single readings scatter. The list shows a part of the results.

experiment: Acumen qHTS Assay for Inhibitors of the mTORC1 Signaling Pathway in MEF (Tsc2-/-, p53-/-) Cells: Sytravon; conditions: phospho-rpS6 immunofluorescence/PI, 24 h; series mostly up to 38.3 µM; activity change, negative = inhibition: at the top concentration; also: nearly all actives have a fitted effect of over 50% in size;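 as to activity change, negative = inhibition: plate controls were DMSO for no effect and rapamycin for full effect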
How it was run: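 Immunofluorescence of rpS6 phosphorylation in Tsc2-/-, p53-/- MEFs after 24 h compound exposure, normalized to propidium iodide signal. Activity is expressed as % positive cells, thresholded with 7.5 nM rapamycin.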
Potency is read from the fitted curve at half-maximal effect.

SMILES | activity change, negative = inhibition | Potency
C#CC(C)(C)NS(=O)(=O)c1cc(-c2nnc(Nc3ccc(C)cc3)c3ccccc23)ccc1C | inactive: -5.03% | 
Cc1ccc(NC(=O)CN(c2ccccc2)S(=O)(=O)N(C)C)cc1Cl | inactive: -8.57% | 
Cc1ccc(NC(=O)NCc2ccc3c(c2)CCN3C(=O)c2ccccc2)c(Cl)c1 | inactive: -0.393% | 
NS(=O)(=O)c1ccc(CCNC(=O)CCCCCn2c(=O)[nH]c3ccccc3c2=O)cc1 | inactive: -1.76% | 
COc1ccc(NC(=O)c2cn(CC(C)C)c(=O)c3cc(OC)c(OC)cc23)cc1Cl | inactive: 3.32% | 
Cc1ccc(NC(=O)c2nn(C)c3c2CS(=O)(=O)c2ccccc2-3)c(Cl)c1 | inactive: 0.4% | 
Oc1c(C(c2ccccc2)N2CCC3(CC2)OCCO3)sc2nc(-c3ccco3)nn12 (configuration not stated) | inactive: -0.312% | 
Cc1nc(N2CCOCC2)c2c(C(=O)NCc3cccc(Cl)c3)c(C)oc2n1 | inactive: 7.12% | 
CCOC(=O)Cc1ccc(NC(=O)Nc2cccc(OCc3cc(=O)n4cc(C)ccc4n3)c2)cc1 | inactive: 3.4% | 
COc1ccc(-c2nc3c(c(SCC(=O)Nc4ccc(C(=O)O)cc4)n2)Cc2ccccc2O3)cc1 | inactive: -1.62% | 
O=C(CCCCCn1c(=O)c2sccc2n(CC(=O)Nc2cccc(Cl)c2)c1=O)NCc1ccc2c(c1)OCO2 | inactive: -12.2% | 
CCc1cccc(NC(=O)CSc2ncc3c(n2)-c2ccc(Cl)cc2N(Cc2ccccc2)S3(=O)=O)c1 | inactive: 0% | 
COc1cccc(C(=O)NC2(C(F)(F)F)C(=O)Nc3c2c(=O)[nH]c(=O)n3-c2ccc(C)cc2)c1 (configuration not stated) | inactive: 2.02% | 
CCc1c(C)sc2c1CCN(C(=O)Nc1cc(OC)c(OC)c(OC)c1)C2c1ccccc1 (configuration not stated) | inactive: 12.4% | 
CCCCN(C)CCNC(=O)c1ccc2c(=O)n(CCc3ccccc3)c(=O)[nH]c2c1 | inactive: -16.3% | 
CCc1ccc(NC(=O)C(NS(=O)(=O)c2cccs2)C(C)C)cc1 (configuration not stated) | inactive: -18.8% | 
Cn1c(=O)c2c(-c3ccccc3)n3c(c2n(C)c1=O)C(c1ccccc1[N+](=O)[O-])Nc1ccccc1-3 (configuration not stated) | inactive: 1.27% | 
Cn1c(=O)c2c(c3ccccc31)OC(=O)CC2c1ccc(C(F)(F)F)cc1 (configuration not stated) | inactive: 4.44% | 
O=C(Nc1ccc2oc(-c3cccc4c(Br)cccc34)nc2c1)c1ccc(F)cc1 | inactive: -0.774% | 
CCOC(=O)c1oc2ccc(S(=O)(=O)n3nc(-c4ccccc4OC)cc3N)cc2c1C | inactive: 2.8% | 
O=C(COC(=O)c1cc(-c2cccs2)nc2ccccc12)c1ccccc1 | inactive: 0.538% | 
CCCN(CCC)CCCNC(=O)Cn1cnc2sc(C)c(S(=O)(=O)N3CCCCC3)c2c1=O | inactive: -1.46% | 
CCCN(Cc1cccs1)C(=O)Nc1cc(Cl)c(OC)cc1OC | inactive: -11.1% | 

SMILES | activity change, negative = inhibition | Potency
O=C(c1ccc2c(c1)N(Cc1ccccc1F)C(=O)c1ccccc1S2(=O)=O)N1CCOCC1 | inactive: 3.62% | 
Cc1ccc(-c2nc3nc(C)cc(N4CCN(c5cc(Cl)ccc5C)CC4)n3n2)cc1 | inactive: -7.42% | 
COc1ccc(-c2cc(C(=O)Oc3ccccc3)c3cc(C)ccc3n2)cc1 | inactive: 5.7% | 
CCn1c(=O)n(-c2ccc(C)c(F)c2)c(=O)c2sc3ccccc3c21 | inactive: 3.06% | 
COc1cccc(-n2c(SCC(=O)Nc3cc(C)ccc3C)nc3c(oc4ccccc43)c2=O)c1 | inactive: -3.34% | 
CCOCCCNC(=O)c1ccc2nc(CCc3ccccc3)oc2c1 | inactive: -0.44% | 
COc1ccc(C2=NC3(CCCCC3)N(CC(=O)Nc3ccc(C(C)C)cc3)C2=O)cc1 | inactive: -3.15% | 
COc1cccc(CN2CCc3nc(Nc4ccc5c(c4)OCCO5)ncc3C2)c1 | inactive: 21.1% | 
Cc1ccc2nc(N(Cc3cccnc3)C(=O)Cc3ccccc3)sc2c1 | inactive: -4.1% | 
CCOC(=O)c1ccccc1NC(=O)Cn1ncc2c([nH]c3ccccc32)c1=O | inactive: -4.45% | 
COc1cccc(C2CC(=O)Nc3cc4c(cc32)OCCO4)c1OC (configuration not stated) |  | active: 14.7 µM
Cc1ccccc1Cn1c(SCc2ccc(C(=O)NC(C)c3ccccc3)cc2)nc2ccncc21 (configuration not stated) | inactive: 0.527% | 
O=C(NCCc1cccs1)c1ccc(Cn2c(SCc3ccc(F)cc3)nc3cccnc32)cc1 | inactive: -1.37% | 
Fc1ccc(NCc2cccn2-c2nnc(N3CCOCC3)s2)cc1 | inactive: -0.928% | 
CC1CCN(c2ncnc3c2cnn3-c2ccc(F)cc2)CC1 | inactive: 9.09% | 
CCc1ccc(-n2c(=O)c3c4c(sc3n(CC(=O)NCCCOC)c2=O)CCCC4)cc1 | inactive: -12.3% | 
COc1cccc(NC(=O)c2sc3nc(C)c(C(=O)Nc4ccc(C)cc4C)c(-c4ccccc4Cl)c3c2N)c1 | inactive: -14.8% | 
CCc1ccc(-c2nc(CN3CCC(C(=O)NCCc4ccc(Cl)cc4)CC3)c(C)o2)cc1 | inactive: -3.71% | 
Cc1ccc(CCNC(=O)c2ccc(NC(=O)N3CC(C)Sc4ccccc43)cc2)cc1 (configuration not stated) | inactive: -3% | 
COC(=O)C1=C(c2ccccc2)c2ccccc2S(=O)(=O)N1CC(=O)Nc1cccc(C(C)=O)c1 | inactive: -15.8% | 
CC(CNC(=O)CN1C(=O)COc2ccc(S(=O)(=O)N3CCCCC3)cc21)c1ccccc1 (configuration not stated) | inactive: -0.983% | 
COc1ccc2c(c1)c1c(c(=O)n(Cc3ccccc3)c(=O)n1Cc1ccc(C)cc1)n2C | inactive: -2.93% | 
Cc1ccccc1C(=O)Nc1ccc(C(=O)OCc2cc(=O)n3nc(C4CC4)sc3n2)cc1 | inactive: 0% | 

SMILES | activity change, negative = inhibition | Potency
O=C(Nc1ccc(Cl)cc1)C1CCN(S(=O)(=O)c2ccc(Br)s2)CC1 | inactive: -4.55% | 
CC1CN(C(=O)Nc2ccc(C(=O)NCCc3ccccc3Cl)cc2)c2ccccc2S1 (configuration not stated) | inactive: 0.486% | 
CCOc1ccc(NC(=O)CC2C(=O)N(c3cccc(C)c3)C(=O)N2Cc2ccco2)cc1 (configuration not stated) | inactive: -5.25% | 
COc1ccc(-c2cc(C(F)(F)F)n3nc(C(=O)Nc4sc5c(c4C#N)CCC(C)C5)cc3n2)cc1OC (configuration not stated) | inactive: -25.5% | 
CCOC(=O)C1CCN(C(=O)c2cc3ccc4ccc(C)[nH]c4c3n2)CC1 | inactive: 3.49% | 
CCC(C)NC(=O)c1[nH]c2cc(OC)ccc2c1Sc1ccc(C)cc1 (configuration not stated) | inactive: 1.33% | 
CCOC(=O)c1cccc(NC(=O)c2cnn(-c3ccccc3)c2-n2cccc2)c1 | inactive: -5.21% | 
O=C(CSCc1cc(=O)c2ccccc2[nH]1)Nc1cccc(C(F)(F)F)c1 | inactive: 0.519% | 
CC(=O)c1ccc(N2CCN(S(=O)(=O)c3ccc4[nH]c5c(c4c3)CCCCC5)CC2)cc1 | inactive: -11.1% | 
CC(=O)N1c2ccccc2C(=O)C1N1CCN(c2cc(Cl)ccc2C)CC1 (configuration not stated) | inactive: -1.98% | 
CCC1CN(C(=O)Nc2ccccc2C(F)(F)F)c2ccccc2S1 (configuration not stated) | inactive: -11.3% | 
CCC1CN(C(=O)N2CCC(C(=O)N(C)Cc3ccccc3)CC2)c2ccccc2O1 (configuration not stated) | inactive: 4.67% | 
Cc1ccc(CNC(=O)c2cc(S(=O)(=O)N3CCCCC3)cn2C)cc1 | inactive: 0.0286% | 
Cc1ccc2nc(CN3CCN(C(=O)Nc4cccc(C)c4C)CC3)oc2c1 | inactive: 19% | 
COc1ccc(NC(=O)CN2C(=O)CC(c3ccco3)Sc3ccccc32)cc1OC (configuration not stated) | inactive: 2.66% | 
COC(=O)c1scc(-c2ccc(C)cc2)c1S(=O)(=O)Nc1c(C)cc(C)cc1C | inactive: -0.433% | 
Cc1nc2c(-c3ccccc3)c(C)[nH]n2c(=O)c1Cc1ccc(C(C)C)cc1 | inactive: 4.65% | 
CCS(=O)(=O)c1ncc(N(Cc2cccc(F)c2)Cc2ccco2)c(C(=O)Nc2ccccc2Cl)n1 | inactive: -9.33% | 
CCOc1ccccc1NC(=O)CCNS(=O)(=O)c1ccc2c(c1)CCN2C(=O)C1CC1 | inactive: 1.66% | 
CCCCS(=O)CC(O)CSc1nc(-c2ccc(OC)cc2)cc(-c2ccccc2)c1C#N (configuration not stated) | inactive: 1.75% | 
Cc1ccc(/C=C/c2onc(C)c2S(=O)(=O)N2CCC(C(=O)NCc3ccc(N(C)C)cc3)CC2)cc1 | inactive: 0.355% | 
COc1ccc(NC(=O)CN(c2ccc(C)cc2)S(=O)(=O)c2cccs2)cc1OC | inactive: -2.88% | 
CCC(Sc1nnc(-c2ccc(OC)cc2)c(-c2ccc(OC)cc2)n1)C(=O)Nc1cccc(OC)c1 (configuration not stated) | inactive: 8.43% | 

SMILES | activity change, negative = inhibition | Potency
Fc1ccccc1N1CCN(c2c3c(nc4nncn24)CCC3)CC1 | inactive: 1.85% | 
CCCCN(C)C(=O)Cn1ncc2c([nH]c3ccc(C)cc32)c1=O | inactive: 4.66% | 
Cc1ccc(OCCCC(=O)Nc2sc3c(c2C(N)=O)CCCC3)cc1 | inactive: 9.69% | 
Cn1ncc2c(N3CCN(c4ccccc4Cl)CC3)ncnc21 | inactive: -7.69% | 
COc1ccccc1NC(=O)c1sc2nc(-c3cc4ccccc4oc3=O)[nH]c(=O)c2c1C | inactive: -17.1% | 
Cc1cc(C)cc(NC(=O)c2cccc(N3CCCS3(=O)=O)c2)c1 | inactive: -6.19% | 
Cc1cccc(C(=O)Nc2nnc(SCc3cc(=O)n4cccc(C)c4n3)s2)c1 | inactive: -4.7% | 
O=C(Cc1ccc(Cl)cc1)NCC(c1cccs1)S(=O)(=O)c1ccc(Cl)cc1 (configuration not stated) | inactive: -1.44% | 
O=C(CSc1nnc(-c2ccccc2F)o1)N1CCc2ccccc21 | inactive: -9.75% | 
COc1ccc(C(=O)N/C(=C\c2cn(S(=O)(=O)N(C)C)c3ccccc23)C(=O)NCCCn2ccnc2)cc1 | inactive: 0.357% | 
Cc1cccc(NC(=O)c2c(NC(=O)c3ccco3)sc3c2CCC(C(C)(C)C)C3)c1 (configuration not stated) | inactive: -3.18% | 
CN(Cc1ccccc1)C(=O)C1CCN(Cc2cc3ccccc3n2Cc2ccccc2)CC1 | inactive: -13.2% | 
COc1cc(OC)cc(C(=O)Nc2ccc(S(=O)(=O)Nc3onc(C)c3C)cc2)c1 | inactive: 3.27% | 
Cc1ccc(-n2c3c(cc(-c4nc(-c5ccc(Cl)cc5)cs4)c2=O)C(=O)CC(C)(C)C3)cc1 | inactive: -20.6% | 
O=C(Cn1nc(C(F)(F)F)c2c1CCCC2)Nc1ccc(Cl)cc1 | inactive: -7.41% | 
COc1cccc(CNC(=O)CN2C(=O)CCn3nc(-c4cn(C)c5ccccc45)cc32)c1OC | inactive: -7.76% | 
CCc1ccc(N2C(=O)CSC23C(=O)N(Cc2cccc(F)c2)c2ccccc23)cc1 (configuration not stated) | inactive: -0.555% | 
CCOC(=O)c1cccc(NC(=O)c2cc(-c3ccc(Cl)s3)nc3ccccc23)c1 | inactive: -1.3% | 
O=C(NCCc1ccccc1)c1ccc(CSc2nc3ccncc3n2Cc2ccccc2)cc1 | inactive: -6.38% | 
COc1ccc(NC(=O)Cn2ncc3c([nH]c4ccccc43)c2=O)cc1Cl | inactive: -2.53% | 
CCN(CC)CCCNC(=O)c1cn(C)c2ccc(S(=O)(=O)N3CCOCC3)cc2c1=O | inactive: -2.36% | 
Cc1ccc(NC(=O)CSc2nc(C)cc(C)c2C(=O)Nc2cccc(C)c2)cc1 | inactive: -0.259% | 
CCC(C(=O)NCc1ccccc1)n1ncn2c(cc3occc32)c1=O (configuration not stated) | inactive: -8.7% | 
